From PubChem BioAssay AID1466 (National Center for Advancing Translational Sciences (NCATS), 2008)
In all, about 200,000 compounds went through this assay and about 10 (0.005%) were called active. The inconclusive results got no clear call from the source; some entries with a clear call stand among them for comparison. Calls come from the whole dose curve; as a rule, active = well fitted inhibition curve with a large enough effect; inconclusive = small, poorly fitted or top-dose-only effect, or effect the other way, or another doubt; inactive = no such curve, though single readings can be large or run the other way. Potencies of inconclusive entries are left out as doubtful fits. Peptide text beside a SMILES is read from it. * marks the point of attachment. Cbz = O=C(OCc1ccccc1)*; OtBu = CC(C)(C)O*; tBu = CC(C)(C)*

biological target: Lysosomal alpha-glucosidase (Homo sapiens) (UniProt P10253); test: qHTS Assay for Inhibitors of Human alpha-Glucosidase as a Potential Chaperone Treatment of Pompe Disease; conditions: purified human GAA, 4-MU-alpha-glucoside fluorescence; activity change, negative = inhibition: at 76.9 µM (top of the series) unless noted;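 for activity change, negative = inhibition: plate controls were uninhibited enzyme wells for no effect and no-enzyme background for full effect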
How it was run: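 Compounds are titrated up to 77 uM against 4 nM human enzyme. Substrate 4-methylumbelliferyl-alpha-D-pyranoside (400 uM) reacts 20 min at room temperature in pH 5.0 buffer; liberated 4-methylumbelliferone is read at 440 nm.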
Potency is the fitted concentration of half-maximal effect; tags give direction and shape of the fitted curve.

SMILES	Potency	activity change, negative = inhibition
COc1ccc(C(C)=O)cc1CSc1nc2ccccc2c(=O)n1-c1ccccc1C	inconclusive [inhibitor, single point]	–
CCOC(=O)c1sc2nc(C)cc(C)c2c1N	inconclusive [activator, partial curve]	–
O=C(Cc1cccs1)NCc1cn2ccccc2n1	inconclusive [inhibitor, single point]	–
COC(=O)C1=C(C)NC2=C(C(=O)CCC2)C1c1cccc(C)n1 (configuration not stated)	inconclusive [activator, partial curve]	–
CCCN1C(=O)S/C(=C\c2ccc(N3CCOCC3)o2)C1=O	inactive	–
O=C(c1n[nH]c2ccccc12)N1CCN(S(=O)(=O)c2ccc3ccccc3c2)CC1	inconclusive [inhibitor, partial curve]	–
COc1ccc2nc(NC(=O)c3cccc(S(=O)(=O)N4CCOCC4)c3)sc2c1	inconclusive [inhibitor, full curve, poor fit]	–
O=C(COc1ccccc1[N+](=O)[O-])N1CCC(Cc2ccccc2)CC1	inconclusive [inhibitor, partial curve]	–
Cc1sc2ncnc(NCC(c3ccco3)N3CCCC3)c2c1C (configuration not stated)	inconclusive [inhibitor, single point]	–
COC(=O)c1cc(Br)ccc1NC(=O)Nc1ccccc1	inconclusive [activator, partial curve]	–
C=CCn1c(SCc2cc([N+](=O)[O-])cc3c2OCOC3)nc2cc(C(=O)O)ccc2c1=O	inconclusive [activator, full curve, poor fit]	–
Cc1ccc2nc(Cl)c(/C=N/Nc3nc(C)cc(C)n3)c(=O)n2c1	inconclusive [inhibitor, single point]	–
NNC(=O)c1ccc(CN2C(=O)c3cccc4cccc2c34)cc1	–	inconclusive: 16.2% [activator]
NC(=O)Cn1nc(C(F)(F)F)c2c1CCCC2	inconclusive [activator, full curve, poor fit]	–
CC(=O)Nc1ccc(NC(=O)Cn2ccc([N+](=O)[O-])n2)cc1	–	inconclusive: 15% [activator]
O=C(O)C1CC=CCC1C(=O)N1CC=C(c2ccccc2)CC1 (configuration not stated)	inconclusive [inhibitor, full curve, poor fit]	–
CC(C)(C)OC(=O)C(C)(C)O/N=C(\C(=O)O)c1csc(N)n1	–	inconclusive: 14.5% [activator]
COc1ccc(Cl)cc1S(=O)(=O)N1CCN(C(=O)COc2ccccc2)CC1	inconclusive [inhibitor, single point]	–
COCCCNC(=S)N/N=C/c1ccc(OC)cc1	inactive	–
COc1ccc(-c2cc(C(F)F)n3ncc(C(=O)NCC4CCCO4)c3n2)cc1 (configuration not stated)	inconclusive [activator, partial curve]	–
Cc1ccc(NS(=O)(=O)c2cc(C(=O)NCCSC3CCCCC3)ccc2C)cc1	inconclusive [inhibitor, single point]	–

SMILES	Potency	activity change, negative = inhibition
CCc1ccc(NC(=O)COC(=O)CCc2nc3cc(S(=O)(=O)N(CC)CC)ccc3n2C)cc1	inconclusive [inhibitor, partial curve, poor fit]	–
O=[N+]([O-])/C=C/c1cn(Cc2ccccc2)c2ccccc12	–	inconclusive: -17% [inhibitor]
CCOC(=O)c1cccc(S(=O)(=O)N(CCO)Cc2cc3cc(OC)ccc3[nH]c2=O)c1	inconclusive [activator, single point]	–
CNC(=O)c1ccc(-c2sc3nc(N4CCOCC4)c4c(c3c2N)CCCC4)o1	inconclusive [activator, single point]	–
COCCN1C(=O)C(=O)/C(=C(/O)c2cccc(OC)c2)C1c1ccco1 (configuration not stated)	–	inconclusive: 19.2% [activator]
COc1cc2nc(C3CCC3)n(NC(=O)c3ccco3)c(=O)c2cc1OC	–	inconclusive: 18.4% [activator]
Cc1nn(C)c(Sc2ccccc2N)c1[N+](=O)[O-]	inactive	–
CC(=O)NC(Cc1cnc[nH]1)C(=O)O (configuration not stated)	inconclusive [inhibitor, single point]	–
CCOC(=O)c1sc(=S)n(-c2ccccc2OC)c1N	inconclusive [inhibitor, full curve]	–
O=C(O/N=C\c1ccc(N2CCCCC2)c([N+](=O)[O-])c1)c1cccc(C(F)(F)F)c1	–	inconclusive: -15.3% [inhibitor]
COc1cccc(C2CC(=O)Nc3cc4c(cc32)OCCO4)c1OC(C)C (configuration not stated)	inconclusive [inhibitor, single point]	–
Cc1cc(NC(=O)c2ccccc2)n(-c2ccccc2)n1	inconclusive [inhibitor, partial curve, poor fit]	–
CC(=O)Nc1ccc(S(=O)(=O)Nc2cccc(-c3cn4cccnc4n3)c2)cc1	inconclusive [inhibitor, single point]	–
CCOC(=O)C1=C(C)NC2=C(C(=O)C(C(=O)OCC)C(c3ccc(OC)cc3)C2)C1c1ccccn1 (configuration not stated)	inconclusive [activator, single point]	–
CC(=O)N[C@@H](Cc1c[nH]c2ccccc12)C(=O)OCC(=O)Nc1ccc(Cl)c(S(=O)(=O)N(C)C)c1	inconclusive [inhibitor, single point]	–
O=C(Cc1c[nH]c2ccccc12)NCc1cccs1	inconclusive [inhibitor, full curve]	–
O=C(Nc1ccc2nc(SCc3ccc(Cl)cc3)sc2c1)c1ccccc1C(=O)N1CCOCC1	inconclusive [inhibitor, partial curve]	–
COC(=O)c1cc(C#N)c(OC)nc1C	inconclusive [inhibitor, partial curve]	–
CC(NC(=O)OCc1ccccc1)C(=O)NCC(=O)NC(Cc1ccc(OC(C)(C)C)cc1)C(=O)OC(C)(C)C (stereo not drawn) (Cbz-Ala-Gly-Tyr(tBu)-OtBu; configuration not given here)	–	inconclusive: -15.7% [inhibitor]
CCCC(=O)NC(=S)Nc1ccccc1C(=O)OC	inactive	–
CC1=Nc2cc(C(=O)O)ccc2Sc2c(C)ccc(C)c21	inconclusive [inhibitor, full curve, poor fit]	–

SMILES	Potency	activity change, negative = inhibition
CCOC(=O)C(CC)(CCC(=O)O)c1csc(Nc2ccc(C)cc2)n1 (configuration not stated)	inconclusive [activator, partial curve]	–
COc1ccc(-n2c(SCC(=O)Nc3nccs3)nc3sc4c(c3c2=O)CCN(C)C4)cc1	inconclusive [inhibitor, partial curve, poor fit]	–
CCC(C(=O)NCc1ccncc1)c1ccccc1 (configuration not stated)	inconclusive [inhibitor, partial curve]	–
CC(C)(C)NC(=O)c1ccc(Sc2ccccc2)c([N+](=O)[O-])c1	inconclusive [inhibitor, full curve, poor fit]	–
COc1ccccc1NCCC(=O)OCC(=O)NC1CCCC(C)C1C (configuration not stated)	inconclusive [inhibitor, partial curve, poor fit]	–
Cc1ccc(-n2cc(CNCCc3ncc(C)[nH]3)c(-c3ccc(F)cc3)n2)cc1	–	inconclusive: 20.6% [activator]
O=C(CN1CCOCC1)Nc1ncc(Cc2ccccc2Cl)s1	inconclusive [inhibitor, single point]	–
Cn1c(=O)c(Oc2ccc(Cl)cc2)c(O)c2ccccc21	inconclusive [inhibitor, full curve, poor fit]	–
O=S(=O)(c1ccc(Cl)s1)N1CCN(C/C=C/c2ccccc2)CC1	inconclusive [inhibitor, single point]	–
COc1ccccc1CC(=O)NC1CCC(C)CC1 (configuration not stated)	inconclusive [activator, full curve, poor fit]	–
CCN(c1ccccc1)S(=O)(=O)c1cc(C(=O)Oc2ccc3c(C)cc(=O)oc3c2)ccc1C	inconclusive [activator, partial curve]	–
CC(Nc1nc(N2CCOCC2)nc2ccccc12)c1ccccc1 (configuration not stated)	inconclusive [activator, partial curve]	–
CCOC(=O)c1c(NC(=O)CSc2nnnn2C)sc(C)c1-c1ccc(C)cc1	–	inconclusive: -18.9% [inhibitor]
Cc1ccc(-n2ncc3c(N4CCN(c5ccccc5)CC4)ncnc32)c(C)c1	inconclusive [inhibitor, partial curve, poor fit]	–
COc1ccc(-c2nnc(SCC(=O)NC(C)c3ccccc3)o2)cc1OC (configuration not stated)	–	inconclusive: -16% [inhibitor]
CC(CNc1ccc([N+](=O)[O-])c2cccnc12)Nc1c([N+](=O)[O-])cc(C(F)(F)F)cc1[N+](=O)[O-] (configuration not stated)	inconclusive [inhibitor, single point]	–
CC(=O)Nc1ccc(NC(=O)COC(=O)c2ccco2)cc1	–	inconclusive: -16% [inhibitor]
Cn1c(=O)c(=O)n(C)c2cc(S(=O)(=O)N3CCOCC3)ccc21	inconclusive [inhibitor, single point]	–
CN1CCN(C(=O)CSc2nc(-c3cccs3)ccc2C#N)CC1	inconclusive [activator, partial curve, poor fit]	–
N#Cc1c(-c2ccncc2)c2c([nH]c1=S)CCCC2	inactive	–
